Results on 2 compounds are retold here after PubChem BioAssay AID652011 (Sanford-Burnham Center for Chemical Genomics, 2013).

Not every entry of the source has a single result; some have several. Only these are listed.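 Rule for the calls: active = IC50 of 10 µM or lower on HIF-2a in both cell lines, but not on HIF-1a; inactive = the rest, including compounds also potent on HIF-1a.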 An entry can have further records. The records of an entry are repeats across runs, samples, wells, individuals or studies. Records carry a tag for their origin. The letters are not those of the source and start again with each entry.

In test [1] the target is Endothelial PAS domain-containing protein 1 (Homo sapiens) (UniProt Q99814). Briefly: HIF reporter inhibition across pancreatic and renal lines – cell-based, luminescence, MIAPaCa-2, 786-0, panel, SAR follow-up (AID 652011). As to conditions: MIAPaCa-2/PANC HIF reporter, luciferase luminescence, desferoxamine, overnight; HIF2a PANC cells; mean of runs. The procedure, abridged: (§1)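 Probe or stimulus: desferoxamine stimulus; times: overnight seeding and compound exposure, 37 °C, 5% CO2, 10-min detection; signal: One-Glo luciferase luminescence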
Chain of UniProt Q99814 (Q99814 whole entry, looked up, the tested form may be a part): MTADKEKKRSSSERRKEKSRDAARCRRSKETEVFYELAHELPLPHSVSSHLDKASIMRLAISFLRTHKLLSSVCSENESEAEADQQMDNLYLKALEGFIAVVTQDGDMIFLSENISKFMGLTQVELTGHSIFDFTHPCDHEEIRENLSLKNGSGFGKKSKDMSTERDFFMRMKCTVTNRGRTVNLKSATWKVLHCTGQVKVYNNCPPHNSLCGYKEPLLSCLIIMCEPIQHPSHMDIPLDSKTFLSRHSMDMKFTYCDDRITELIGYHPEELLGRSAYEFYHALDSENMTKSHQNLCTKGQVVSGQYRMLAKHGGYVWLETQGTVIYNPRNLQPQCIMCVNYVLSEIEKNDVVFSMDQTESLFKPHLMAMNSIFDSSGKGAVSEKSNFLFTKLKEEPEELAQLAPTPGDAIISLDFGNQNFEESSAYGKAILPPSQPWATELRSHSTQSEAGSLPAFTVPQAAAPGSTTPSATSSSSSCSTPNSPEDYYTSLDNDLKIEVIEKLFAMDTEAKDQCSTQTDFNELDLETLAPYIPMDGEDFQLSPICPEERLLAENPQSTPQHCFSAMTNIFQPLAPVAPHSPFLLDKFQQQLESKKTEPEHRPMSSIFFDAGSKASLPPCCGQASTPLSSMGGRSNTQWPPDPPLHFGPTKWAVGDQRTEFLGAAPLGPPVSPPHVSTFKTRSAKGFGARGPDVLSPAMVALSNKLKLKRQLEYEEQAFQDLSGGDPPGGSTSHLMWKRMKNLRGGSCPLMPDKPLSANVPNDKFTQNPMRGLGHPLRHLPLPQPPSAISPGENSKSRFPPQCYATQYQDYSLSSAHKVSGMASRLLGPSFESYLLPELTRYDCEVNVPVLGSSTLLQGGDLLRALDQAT

A further test relates to HIF2a PANC. The description is as above. The following applies: MIAPaCa-2/PANC HIF reporter, luciferase luminescence, desferoxamine, overnight, run 2, individual run IC50, panel line. The procedure, abridged:
as §1

In the case of `CCNC(=O)CCc1nc(-c2ccc(C(C)(C)C)cc2)no1`, the concentration for half-maximal inhibition (IC50) entry in test [1] is “inactive [sample A] and < 190 nM [sample B]”. As to `CC(C)(C)c1ccc(-c2noc(CCC(=O)NCc3ccco3)n2)cc1`, the 50% inhibitory concentration (IC50) in test [1] was < 190 nM [sample A] and inactive [sample B]; in the test with HIF2a PANC, < 190 nM [sample A] and > 99 µM [sample B].
